According to PMC4336329 (PLoS ONE, 2015):
Hit rate of the full screen: of about 310,000 compounds, about 2,200 (0.71%) showed an effect of 50% or more. The effect is printed as a negative number. The list shows a part of the results.

molecular target: human ether-à-go-go-related gene (hERG) potassium channel (human, UniProt Q12809); assay: primary screen, population patch clamp on CHO cells stably expressing hERG
Sequence (Q12809 whole entry, looked up): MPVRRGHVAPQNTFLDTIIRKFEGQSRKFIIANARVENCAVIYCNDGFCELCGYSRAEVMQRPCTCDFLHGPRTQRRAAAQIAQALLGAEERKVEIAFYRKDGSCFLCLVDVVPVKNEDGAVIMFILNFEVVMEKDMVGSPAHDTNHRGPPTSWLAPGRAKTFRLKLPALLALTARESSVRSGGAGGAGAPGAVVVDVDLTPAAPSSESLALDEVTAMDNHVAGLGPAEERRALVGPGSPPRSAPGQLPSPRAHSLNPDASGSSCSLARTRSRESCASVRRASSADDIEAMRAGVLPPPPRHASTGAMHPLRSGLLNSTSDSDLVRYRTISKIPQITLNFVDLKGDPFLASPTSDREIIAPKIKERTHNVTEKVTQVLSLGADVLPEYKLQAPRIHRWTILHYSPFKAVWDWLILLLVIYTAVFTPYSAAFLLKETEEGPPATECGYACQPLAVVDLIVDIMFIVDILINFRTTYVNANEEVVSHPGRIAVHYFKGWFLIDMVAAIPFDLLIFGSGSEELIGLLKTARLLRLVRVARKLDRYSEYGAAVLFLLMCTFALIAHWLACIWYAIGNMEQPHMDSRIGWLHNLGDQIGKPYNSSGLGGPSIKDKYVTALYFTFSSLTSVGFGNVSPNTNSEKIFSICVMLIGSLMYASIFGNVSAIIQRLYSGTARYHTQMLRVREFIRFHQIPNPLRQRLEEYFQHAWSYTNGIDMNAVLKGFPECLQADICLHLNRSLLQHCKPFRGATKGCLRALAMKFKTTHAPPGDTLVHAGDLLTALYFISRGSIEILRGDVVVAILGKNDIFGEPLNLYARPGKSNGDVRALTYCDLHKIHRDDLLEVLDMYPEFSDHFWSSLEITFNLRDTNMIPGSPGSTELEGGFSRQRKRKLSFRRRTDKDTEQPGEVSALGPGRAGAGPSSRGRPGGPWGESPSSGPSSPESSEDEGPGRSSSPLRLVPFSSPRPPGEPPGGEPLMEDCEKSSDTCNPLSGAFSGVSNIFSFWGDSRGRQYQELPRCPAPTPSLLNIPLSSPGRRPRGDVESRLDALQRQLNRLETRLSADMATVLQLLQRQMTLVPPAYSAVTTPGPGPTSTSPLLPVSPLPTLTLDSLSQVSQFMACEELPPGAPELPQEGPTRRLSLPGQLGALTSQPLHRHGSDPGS

| Compound | hERG current change (%, negative = inhibition) at 1uM |
| --- | --- |
| O=C(CN1C(=O)c2cccc3cccc1c23)NC1CCCCC1 | 9.52% |
| COC(=O)c1cccc(COC(=O)c2cc3ccccc3oc2=O)c1 | 14.1% |
| O=C(Cn1nc(-c2ccccc2Cl)ccc1=O)Nc1ccc(Br)cc1 | 5.05% |
| CCOC(=O)c1ccc(S(=O)(=O)Nc2cc(C(C)(C)C)no2)cc1 | 12.5% |
| Cc1ccc(C)c(N2CCN(S(=O)(=O)c3ccc(-c4ccc(=O)[nH]n4)o3)CC2)c1 | 11.4% |
| O=C(Nc1ccc([N+](=O)[O-])cc1)OCCc1ccccn1 | 7.13% |
| O=C(NC1(C(F)(F)F)NC(=O)N(c2ccc(F)c(Cl)c2)C1=O)c1ccncc1 (centres unmarked) | 0.442% |
| COc1ccccc1CNC(=O)[C@@H]1CCCN1S(=O)(=O)c1ccccc1F | 22.4% |
| O=C(Cn1cc(C(F)(F)F)ccc1=O)N/N=C/c1cccc(Cl)c1 | -0.543% |
| O=C(CSc1ccc2nnc(-c3ccccn3)n2n1)Nc1ccccc1F | 4.85% |
| O=C(CSc1nnc(-c2cnccn2)n1Cc1ccco1)c1ccc2ccccc2c1 | -5.09% |
| COc1ccc(S(=O)(=O)N2CCN(Cc3cccc(OC)c3)CC2)cc1 | 5.04% |
| CCOC(=O)c1ccccc1NC(=O)COC(=O)CCC(=O)N1CCOCC1 | 6.94% |
| CCCN(CC1CCCO1)C(=O)c1cc(COc2ccc(F)cc2F)on1 (centres unmarked) | 4.46% |
| COc1ccc(N(C(=O)c2cnccn2)C(C(=O)NCc2ccccc2)c2ccc(O)cc2)cc1 (centres unmarked) | 6.91% |
| Br.Cc1ccc(S(=O)(=O)CCSC(=N)N)cc1 | 7.72% |
| CC1(C)NC(=O)N(CC(=O)N2CCN(S(=O)(=O)c3ccccc3F)CC2)C1=O | 13.2% |
| O=C(NCc1ccccn1)c1n[nH]c(=O)c2ccccc12 | 17.4% |
| CCN1C(=NCc2cc(OC)c(OC)c(OC)c2)N[C@@H](c2ccccc2)[C@H](C(=O)OC)[C@H]1C | 11.6% |

| Compound | hERG current change (%, negative = inhibition) at 1uM |
| --- | --- |
| CC(C)(C)C(=O)CNS(=O)(=O)c1ccc(S(=O)(=O)NC2CC2)cc1 | 4.18% |
| O=C(CCC(=O)Nc1ccc(F)cc1)N/N=C/c1cccc(Br)c1 | 9.59% |
| CCOC(=O)N1CCN(CCC(=O)Nc2cc([N+](=O)[O-])ccc2OC)CC1 | -1.82% |
| CC(C)(C)NC(=O)C(OC(=O)c1cccs1)c1ccc(C#N)cc1 (centres unmarked) | 8.44% |
| O=C(N/N=C1\C/C(=N\NC(=O)c2ccncc2)c2ccccc21)c1ccncc1 | 3.72% |
| CCOc1ccc(-n2c(C)nc3cc(C(=O)NCCCN4CCOCC4)ccc32)cc1 | -1.64% |
| COC(c1ccccc1)c1nnc(CCC(=O)NCc2cccc(-n3cccn3)c2)o1 (centres unmarked) | 4.04% |
| CCOCCCNC(=O)C(c1ccc(C)cc1)N(Cc1cccs1)C(=O)c1ccccc1O (centres unmarked) | 7.18% |
| CCOc1ccc(NC(=O)CSc2nc(=O)n(Cc3cccnc3)c3c2CCC3)cc1 | 5.84% |
| CC(C)N(Cc1nnc(-c2ccc(Cl)cc2)o1)C(=O)C1=COCCO1 | 6.57% |
| O=C(c1cc(F)ccc1F)C1CCCN(Cc2cccn2-c2ccccn2)C1 (centres unmarked) | -83.1% |
| O=C(NCc1ccccn1)C1CCN(C(=O)c2cc3sccc3n2Cc2ccc(F)cc2)CC1 | 3.64% |
| COc1nc(/C=C/N(C)C)c([N+](=O)[O-])c(OC)n1 | 13.2% |
| COc1ccc(C(=O)Nc2ccccn2)cc1 | 12.3% |
| CCCOc1ccc(C(=O)CCNC(Cc2c[nH]c3ccccc23)C(=O)O)cc1 (centres unmarked) | 15.5% |
| CC(=O)Nc1ccc(S(=O)(=O)NCC(=O)N2CCN(S(=O)(=O)c3cccs3)CC2)cc1 | 8.45% |
| Cn1c(SCC2CCCO2)nnc1-c1ccc([N+](=O)[O-])cc1 (centres unmarked) | -8.05% |
| Cc1ccccc1C(=O)O | 2.47% |
| CCCCCn1c(=O)[nH]c2cc(C(=O)NCCCN(C)Cc3ccccc3)ccc2c1=O | 12.3% |

| Compound | hERG current change (%, negative = inhibition) at 1uM |
| --- | --- |
| CCOc1ccc2sc(NS(=O)(=O)c3ccc(N)cc3)nc2c1 | 14.7% |
| Cc1ccc(C(=O)NC(O)C(Cl)Cl)cc1 (centres unmarked) | 9.77% |
| CC(=O)Nc1ccc(S(=O)(=O)N2CCN(CC(=O)N3CCOCC3)CC2)cc1 | 13.3% |
| COc1ccccc1NC(=O)CCN1C(=O)C2C3CCC(C3)C2C1=O (centres unmarked) | 11.9% |
| COc1ccccc1CCN1CCCC(CN(C)Cc2ccc(OCCO)cc2)C1 (centres unmarked) | 5.87% |
| Cc1ccccc1CSc1nnc(Cn2c(=O)sc3ccccc32)n1C | 5.52% |
| COc1ccc(Cl)cc1C(=O)Nn1cnnc1 | 10.6% |
| COc1nc(N)nc(N2CCOCC2)n1 | 11.3% |
| Cc1ccc(NC(=O)c2cc3cc(OC(F)(F)F)ccc3[nH]2)cc1 | 11.9% |
| COc1cccc(C2CCCCN2Cc2nc(-c3ccc(C)o3)oc2C)c1 (centres unmarked) | 10.7% |
| COc1ccc2c(C)cc(N3CCCCCC3)nc2c1.O=C(O)C(=O)O | -43.3% |
| Cc1ccccc1OCC(=O)NNC(=O)Cc1ccc(S(=O)(=O)N2CCOCC2)s1 | 7.82% |
| N#Cc1ccc(S(=O)(=O)NCC(=O)OCC(=O)NCCc2ccccc2)cc1 | 14.7% |
| O=C(NNC(=O)c1ccc(-c2ccccc2)cc1)Nc1ccccc1F | 9.13% |
| Cc1cc(OCc2cccc(Cl)c2)c(C)cc1CN1CCOCC1 | 2.52% |
| O=C(Nc1nc2ccccc2c(=O)[nH]1)c1ccccc1SCc1ccccc1 | 17.6% |
| CN1CCc2c(sc(N)c2C(N)=O)C1 | 10.8% |
| COc1ccc(S(=O)(=O)N2CCC3(CC2)CC(=O)c2ccccc2O3)cc1C | 4.71% |
